Measurements published in the supplement of paper PMC11417369.
This is one part of the list.

The sequences below were run on PfSIP2 AP2 domain 1 (GST-tagged) (assay: gcPBM binding intensity (ln(normalized median fluorescence intensity)); higher = stronger DNA binding).
Outline: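 The binding buffer was 1× PBS containing 1% milk, 0.2 mg/ml BSA, 0.5% salmon testes DNA and 0.03% Triton X-100. In it, GST-tagged P. falciparum DNA-binding domains expressed in E. coli were applied for 1 h to an Agilent 4 × 180k array of primer-extended double-stranded 36-bp intergenic genomic probes plus negative controls. Binding intensity, read with Alexa488 anti-GST antibody and a 488 nm scan, is the highest Masliner-normalised natural-log median intensity across replicate spots of either probe orientation.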

Sequence	gcPBM binding intensity (ln)
TATAAATCTATAAATGCACACAAGGGAAGAAAAACG [CACACA_site2965]	8.89
TATTATTCCAAGAAAAAAAAAAATAAAAAAAAAAAA [CACACA_negctrl_site1424]	6.65
CAAACAATTAAACAAACACACATATACAAGTATATA [CACACA_site8639]	7
AAAGAACAAATAAAACATAAAATAATATATATAGAT [CACACA_negctrl_site1764]	7.02
ATTAAAATTTGTTAAAGTACTTAATAAAAATTTTTC [XGTACX_site1959]	6.93
AATGACTACATAATAGTGCAATATTAAAGAAAATTA	8.55
TGTATATCATAAGATGGTACACGTGTGTGCGTATGC [XGTACX_site2255]	7.26
ATTCTTAAAAAAAAATGTACACATGAACAATATGTA [XGTACX_site362]	7
TTTAAGATTTTGTAATGTACATATATACATATATAT [XGTACX_site399]	7.14
TATATATTATATATGTGTACTCACTAACAAAAATTA [XGTACX_site6285]	7.3
AGGTGAATATTTTTTACACACATAAAAAAAATATAT [CACACA_site57]	7.03
AAATTATATAAAGGAACACACATTTTATTTTATTTT [CACACA_site1500]	6.75
TATATTTTTATAATAACACACGATATATGTTTAGGA [CACACA_site1283]	6.76
TTTTTAGTTAATTAAACACACAAAAAAAAAAATAAA [CACACA_site3930]	6.85
ATAATATTGTGGTATACACACCTTACAAAAAGGTAC [CACACA_site5582]	7.11
AATATTTTTATATATATACACACTTACATATATATA [CACACA_site3609]	7.14
TATTTTTTTACATATTGTACATAATATAAAACTTAC [XGTACX_site8273]	7.17
TATATTTGGTTTCATTCATTTTTATAGAAATCTCAA [CACACA_negctrl_site1412]	6.94
CACACGTATATATATACACACTAAAATACCCAGACA [CACACA_site6142]	7.12
ATTTTTTCATATTCTACACACGTGAACAAATGTGTC [CACACA_site3007]	7.08
ATATAATAGAAGTGTACACACATATTTATGGGTGTA [CACACA_site5686]	7.04
GTATATAATTATATATGTACTAAATAAATATTTTTA [XGTACX_site6062]	6.97
TTTTCTAAAAAAAGTTGTACATCTTATTTATATTAT [XGTACX_site295]	6.94
AAAAAATAAAAAAATAAAAAATAAAAAATAAAAAAT [TGCATGCA_negctrl_site90]	6.72
TATAAAAATAAATAAATAAATAAATAAATAAATAAA [TGCATGCA_negctrl_site310]	7.08
